In all, about 310,000 compounds went through this assay and about 2,200 (0.71%) showed an effect of 50% or more. Effects have a minus sign here. The list shows a part of the results.
Each molecule was assayed against human ether-à-go-go-related gene (hERG) potassium channel (human, UniProt Q12809) (assay: primary screen, population patch clamp on CHO cells stably expressing hERG).
human ether-à-go-go-related gene (hERG) potassium channel, sequence (Q12809 whole entry, looked up): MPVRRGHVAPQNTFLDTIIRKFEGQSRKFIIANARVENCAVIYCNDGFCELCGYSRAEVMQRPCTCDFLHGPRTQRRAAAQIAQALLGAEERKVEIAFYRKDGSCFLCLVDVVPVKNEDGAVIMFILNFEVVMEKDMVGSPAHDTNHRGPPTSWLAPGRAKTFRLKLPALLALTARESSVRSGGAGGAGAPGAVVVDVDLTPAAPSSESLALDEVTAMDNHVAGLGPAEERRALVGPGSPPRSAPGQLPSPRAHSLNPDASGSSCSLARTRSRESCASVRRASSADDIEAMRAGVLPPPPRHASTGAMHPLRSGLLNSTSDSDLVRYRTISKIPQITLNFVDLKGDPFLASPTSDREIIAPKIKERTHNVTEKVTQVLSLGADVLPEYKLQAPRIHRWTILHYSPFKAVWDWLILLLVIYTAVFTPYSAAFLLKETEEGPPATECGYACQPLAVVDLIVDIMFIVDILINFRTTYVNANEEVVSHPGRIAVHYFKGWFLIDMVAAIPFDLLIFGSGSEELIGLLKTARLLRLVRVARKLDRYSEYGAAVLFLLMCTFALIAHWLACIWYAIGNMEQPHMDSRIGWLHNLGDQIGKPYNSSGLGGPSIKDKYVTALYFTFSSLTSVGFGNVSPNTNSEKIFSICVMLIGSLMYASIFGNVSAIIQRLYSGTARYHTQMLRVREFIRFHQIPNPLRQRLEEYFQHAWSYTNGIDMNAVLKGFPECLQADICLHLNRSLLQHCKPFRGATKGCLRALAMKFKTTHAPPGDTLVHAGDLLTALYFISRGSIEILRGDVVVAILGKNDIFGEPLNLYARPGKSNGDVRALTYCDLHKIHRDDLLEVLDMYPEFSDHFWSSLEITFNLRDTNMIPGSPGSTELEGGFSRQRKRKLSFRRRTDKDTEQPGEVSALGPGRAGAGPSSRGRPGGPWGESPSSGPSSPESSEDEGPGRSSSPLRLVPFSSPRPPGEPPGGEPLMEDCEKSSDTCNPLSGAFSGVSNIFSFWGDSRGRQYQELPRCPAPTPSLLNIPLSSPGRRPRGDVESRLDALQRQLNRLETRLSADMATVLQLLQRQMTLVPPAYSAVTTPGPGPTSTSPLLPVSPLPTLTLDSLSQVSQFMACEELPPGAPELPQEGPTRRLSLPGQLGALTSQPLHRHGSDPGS

Row | Structure (SMILES) | hERG current change (%, negative = inhibition) at 1uM
1 | COc1ccc(N2C(=O)CCC(C(=O)N(C)C3CCCCC3)C2c2ccc(OC)c(OC)c2)cc1 (stereo not shown) | 9.16%
2 | Cc1ccccc1OCCC(=O)OCC(=O)NC1CCCC1 | 0.941%
3 | Cc1ccc2c(c1)N(S(=O)(=O)c1cc(-c3onc(C)c3C)ccc1C)CCO2 | 15.6%
4 | CCCOc1ccccc1Cn1c(=O)oc2ccccc21 | 10.2%
5 | COCCSc1nnc(NC(=O)Cc2ccccc2OC)s1 | -4.38%
6 | CC(C)CNc1nc(Oc2ccc(=O)n(C)n2)nc(N2CCOCC2)n1 | 6.14%
7 | C=CCNC(=O)C12CCC(C)(C(=O)[C@H]1Br)C2(C)C (stereo partly shown) | 5.97%
8 | Cc1cc(NC(=O)NC2CC(=O)N(c3ccc4c(c3)OCCO4)C2)no1 (stereo not shown) | 11.3%
9 | Cc1ccc(CCNS(=O)(=O)c2ccc3c(c2)N(C)CCO3)cc1 | 14.8%
10 | Cc1cc(NC(=O)CSc2nc3ccccc3[nH]2)n(-c2ccccc2)n1 | 12.7%
11 | O=C(NCc1ccccc1)N1CCCC1 | 13.3%
12 | C#CCN1C(=O)S/C(=C/c2cc(C)n(CC)c2C)C1=O | 10.4%
13 | CCOc1cc(C)nc(N2CCN(C3CCCCC3)CC2)n1 | -48%
14 | COc1ccc(-n2c(=S)[nH]c3cc(C(=O)Nc4ccccc4OC)ccc3c2=O)c(OC)c1 | 23.7%
15 | CC(C)=CCC(C)(C)/C=N/NC(N)=O | 10.2%
16 | CCOc1c(OC(C)=O)ccc(/C=C2\N=C(SCC)SC2=O)c1[N+](=O)[O-] | 16.1%
17 | O=C(CSc1nnc(-c2ccc(O)cc2)o1)NNC(=O)c1ccncc1 | 13.6%
18 | O=C(NCC(=O)N(CCN1CCOCC1)C(C(=O)NC1CCCC1)c1cccnc1)c1cccs1 (stereo not shown) | 9.12%
19 | O=c1nc(-c2ccccc2)c2cc(SC(F)F)ccc2[nH]1 | 6.79%
20 | Cc1cc(C)n(C(N)=NC(=O)c2ccc([N+](=O)[O-])cc2)n1 | 13.8%
21 | O=C1Nc2ccccc2C(O)(C(=O)N2CCCCC2)N1c1ccccc1 (stereo not shown) | 8.17%
22 | Cc1ccc(-n2c(=O)cc(N3CCCCCC3)[nH]c2=O)cc1 | 8.22%
23 | O=C(c1ccc(N2CCNCC2)cc1)c1cccnc1 | 11.4%

Row | Structure (SMILES) | hERG current change (%, negative = inhibition) at 1uM
24 | CC(=O)N1CCN(CC(=O)c2ccc(Br)cc2)CC1.Cl | 7.75%
25 | Cc1cccc(NC(=O)CNC(=O)COc2ccc(-c3ccc(C#N)cc3)cc2)c1C | 8.38%
26 | CC1CCCCC1NS(=O)(=O)c1ccc(-n2cnnn2)cc1 (stereo not shown) | 7.31%
27 | COc1ccccc1C1CCN(C(=O)c2ccco2)CC1 | 12.3%
28 | CC(OC(=O)C1CCCO1)C(=O)NC1CCCC1 (stereo not shown) | 2.27%
29 | Cc1cc(=O)n2c(C(=O)Nc3ccc(C(=O)OC(C)C)cc3)c(C(=O)Nc3ccccc3)sc2n1 | 10.7%
30 | O=C1CCC([N+](=O)[O-])C(c2ccccc2F)N1 (stereo not shown) | 12.5%
31 | CCOc1ccc(C(C(=O)NCC2CCCO2)N(C(=O)c2snc(C(N)=O)c2N)c2ccc(F)cc2)cc1 (stereo not shown) | 7.1%
32 | Cc1cccc(-n2ncc3c(NNC(=O)c4ccco4)ncnc32)c1 | 14.8%
33 | CC(=O)N1N=C(c2ccc3nccnc3c2)CC1c1ccccc1 (stereo not shown) | -7.41%
34 | CCSc1nc2c(c(=O)[nH]c(=O)n2C)n1C | 13.3%
35 | O=C(NC(=S)N(Cc1ccccc1)c1ccccn1)C1CCCCC1 | -0.314%
36 | O=C(Nc1cccnc1)c1cccc(S(=O)(=O)N2CCOCC2)c1 | 11%
37 | CC(=O)c1cccc(NC(=O)c2ccccc2-c2ccccc2C(=O)O)c1 | 17.1%
38 | Cn1nnc2cc(C(=O)N3CCN(c4ccccc4)CC3)ccc21 | 5.2%
39 | O=c1c(C(c2ccccc2)c2c(O)sc3ccccc3c2=O)c(O)sc2ccccc12 | 5.05%
40 | Cn1c(C23CC4CC(CC(C4)C2)C3)n[nH]c1=S | 12%
41 | O=C(COC(=O)CCC(=O)c1ccc(Cl)cc1)NCC1CCCO1 (stereo not shown) | 12.2%
42 | C=CCOc1ccccc1CN1CCC(n2nccc2NC(=O)c2ccccc2)CC1 | -25.5%
43 | O=C(NNC(=O)C1CC=CCC1C(=O)O)c1cccs1 (stereo not shown) | 9.94%
44 | Cc1ccc(NC(=O)COC(=O)c2ccc([N+](=O)[O-])o2)cc1S(=O)(=O)N1CCCCC1 | 7.15%
45 | COc1ccccc1CNC(=O)CC(C)c1ccccc1 (stereo not shown) | 11.2%
46 | Oc1c(Br)cc(Br)cc1CN1CCN(Cc2ccccc2)CC1 | 15%

Row | Structure (SMILES) | hERG current change (%, negative = inhibition) at 1uM
47 | CC(=O)Nc1ccc(NC(=O)CCc2nc3ccccc3c(=O)[nH]2)cc1 | 10.8%
48 | O=C(N/N=C/c1ccc(O)cc1)c1cccc(C(F)(F)F)c1 | 5.94%
49 | CCCOc1ccc(C(C)=O)cc1Cc1c(O)nc(SC)[nH]c1=O | 13.7%
50 | COc1ccc(OC)c(-c2nnc(SCC(=O)NC3CCCCC3)o2)c1 | -10.4%
51 | CCCN1CCOC(CC(=O)Nc2ccc([N+](=O)[O-])cc2)C1=O (stereo not shown) | 10.5%
52 | O=C(NCC1CCCO1)/C(=C\c1ccco1)NC(=O)c1ccc(Cl)cc1 (stereo not shown) | 1.85%
53 | CCCCn1c(=O)c2c(O)cc(=O)oc2c2ccccc21 | 17.1%
54 | CC1Sc2ccc(S(=O)(=O)N3CCC(C(=O)N(C)Cc4ccco4)CC3)cc2NC1=O (stereo not shown) | 7.3%
55 | O=C(NCCN1CCOCC1)c1ccc(NS(=O)(=O)c2ccccc2)cc1 | 10.2%
56 | Cc1sc(NC(=O)COc2ccccc2)c(C#N)c1C | 15.3%
57 | O=C(c1cc(COc2ccc(F)cc2Cl)on1)N1CC2C[C@@H]3CC1C[C@H](C2)C3 | 12.6%
58 | CC(=O)c1cc(-c2ccccc2)n(CCC(=O)NC2CCCCCCC2)c1C | 8.01%
59 | COc1ccccc1C(=O)OCc1ccc2sc(C)nc2c1 | 4.31%
60 | O=C(CSc1nnnn1-c1ccccc1)CC(=O)Nc1ccc(Cl)cc1 | -6.07%
61 | Cc1onc(-c2ccccc2Cl)c1C(=O)N1CCN(c2nc3ccccc3s2)CC1 | 8.43%
62 | O=C(CC1Oc2ccccc2NC1=O)NCCCN1CCCC1=O (stereo not shown) | -6.46%
63 | CCCCN(CC)CCNC(=O)CN1C(=O)COc2ccc(S(=O)(=O)N3CCCC3)cc21 | 9.86%
64 | CCc1ccc(CN2CCC(n3nccc3NC(=O)c3ccccc3C)CC2)cc1 | -85.1%
65 | O=C(OCc1nnc(-c2ccccc2)o1)c1ccccc1 | 10.3%
66 | CCOC(=O)COc1cccc2c(=O)n(CC(N)=O)ccc12 | 11.6%
67 | Cc1cc(=O)oc2ccc(OCC(=O)O)cc12 | 12.9%
68 | CC(=O)N1CCCc2ccc(NS(=O)(=O)c3ccc(C)c(C)c3)cc21 | 13.3%
69 | COc1ccc(-n2c(=O)c3c4c(sc3n(CC(=O)NC3CCCC3)c2=O)CCCC4)c(OC)c1 | 12.7%

Row | Structure (SMILES) | hERG current change (%, negative = inhibition) at 1uM
70 | CCCNc1nc(Cl)nc(NCc2cccnc2)n1 | 10.2%
71 | CC12CCC(=O)N1C(C(=O)OCC(=O)Nc1cccc(S(=O)(=O)N3CCCCCC3)c1)CS2 (stereo not shown) | -51.9%
72 | O=C(/C=C/c1ccco1)NC(=S)Nc1ccccc1 | 14.7%
73 | Cc1cc(C)n2nc(C(=O)OCC(=O)Nc3cc(Cl)ccc3C)nc2n1 | 8.14%
74 | Cc1cc(C)c(S(=O)(=O)N2CCc3ccccc32)c(C)c1 | 17.5%
75 | Nc1nc(N)c2sc3nc4c(cc3c2n1)CCC4 | 3.67%
76 | COc1ccc(CCC(C)NCCc2ccccc2)cc1 (stereo not shown) | -17.9%
77 | COC(=O)CNC(=O)c1ccc2c(c1)S(=O)(=O)c1ccccc1C2=O | 0.0767%
78 | CCN1C(=O)[C@H]2[C@@H](c3ccc(C)cc3)N3C(=O)N(c4cccc(Cl)c4)C(=O)[C@@]3(C)[C@H]2C1=O | 12.8%
79 | Nc1nc(N)nc(-c2ccccc2)n1 | 14.6%
80 | Cc1c(-c2nc(-c3ccc(C(F)(F)F)cc3)no2)n(C)oc1=O | 10.9%
81 | CC1CC1C(=O)Nc1cc(C(F)(F)F)ccc1N1CCOCC1 (stereo not shown) | -0.0887%
82 | COc1cc(Cl)c(C)cc1NC(=O)c1ccc(S(C)(=O)=O)cc1 | 6.45%
83 | O=C(c1cc(-c2ccco2)nc2ccccc12)N1CCN(Cc2ccccc2)CC1 | -1.82%
84 | Cc1ccc(S(=O)(=O)NC(Cc2ccc(Cl)cc2)C(=O)O)cc1 (stereo not shown) | 14.6%
85 | N#Cc1c(NC(=O)CSc2ncn[nH]2)sc2c1CCCC2 | 11%
86 | COc1c(C)cc(Br)cc1C(=O)Nc1cccc(NC(=O)c2ccco2)c1 | -6.44%
87 | Cc1ccc(S(=O)(=O)NNC(=S)NCCc2ccccc2)cc1 | 3.06%
88 | CCCCN1C(=O)c2ccc(C(=O)NCCN3C(=O)S/C(=C\c4cccnc4)C3=O)cc2C1=O | 6.61%
89 | CC(/C=C/c1ccccc1)NC(N)=O (stereo not shown) | 11.2%
90 | COC(=O)C1CCN(C(=O)Nc2ccccc2)CC1 | 19.6%
91 | CCCCOc1ccc(C(=O)Nc2ccc(N3CCN(C(=O)C(C)C)CC3)cc2)cc1 | 13.1%

Source: paper PMC4336329 (PLoS ONE, 2015)
